The values below come from paper PMC5343488, “Epilepsy and intellectual disability linked protein Shrm4 interaction with GABABRs shapes inhibitory neurotransmission” (Nature Communications, 2017).

By UniProt entry, the sequences of proteins in these tests, tags left out.
UniProt P56536: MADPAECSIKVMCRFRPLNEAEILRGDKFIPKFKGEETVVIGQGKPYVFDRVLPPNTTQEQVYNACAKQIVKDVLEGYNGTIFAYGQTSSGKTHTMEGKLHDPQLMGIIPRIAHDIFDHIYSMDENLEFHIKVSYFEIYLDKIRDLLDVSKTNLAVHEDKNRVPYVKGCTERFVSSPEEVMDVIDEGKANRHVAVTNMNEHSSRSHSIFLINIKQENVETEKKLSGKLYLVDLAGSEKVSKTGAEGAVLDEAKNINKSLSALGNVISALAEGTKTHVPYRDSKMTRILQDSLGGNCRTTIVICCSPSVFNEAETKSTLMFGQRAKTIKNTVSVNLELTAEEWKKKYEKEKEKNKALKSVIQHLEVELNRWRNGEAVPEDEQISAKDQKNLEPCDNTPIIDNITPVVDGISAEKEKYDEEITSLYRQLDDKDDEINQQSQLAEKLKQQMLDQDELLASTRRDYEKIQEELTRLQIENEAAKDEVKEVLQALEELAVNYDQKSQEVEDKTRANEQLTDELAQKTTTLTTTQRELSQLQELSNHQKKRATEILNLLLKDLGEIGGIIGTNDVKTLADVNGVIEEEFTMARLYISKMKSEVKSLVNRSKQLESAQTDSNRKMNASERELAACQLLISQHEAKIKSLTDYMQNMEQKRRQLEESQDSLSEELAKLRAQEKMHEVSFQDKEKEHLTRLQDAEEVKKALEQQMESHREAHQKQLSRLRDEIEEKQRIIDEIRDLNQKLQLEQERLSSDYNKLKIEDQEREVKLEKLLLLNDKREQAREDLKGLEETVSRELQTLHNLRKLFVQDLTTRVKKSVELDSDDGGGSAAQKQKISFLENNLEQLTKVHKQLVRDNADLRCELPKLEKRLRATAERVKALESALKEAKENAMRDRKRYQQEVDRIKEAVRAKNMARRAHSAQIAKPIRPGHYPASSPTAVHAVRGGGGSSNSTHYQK

Results are given in words; binding and its absence hold for the method and conditions named. In cells and extracts the contact can be indirect.

The target in this experiment is T1, Shrm4, endogenous in rat brain (rat (endogenous in brain)) (UniProt F1LVL5).
T1 sequence: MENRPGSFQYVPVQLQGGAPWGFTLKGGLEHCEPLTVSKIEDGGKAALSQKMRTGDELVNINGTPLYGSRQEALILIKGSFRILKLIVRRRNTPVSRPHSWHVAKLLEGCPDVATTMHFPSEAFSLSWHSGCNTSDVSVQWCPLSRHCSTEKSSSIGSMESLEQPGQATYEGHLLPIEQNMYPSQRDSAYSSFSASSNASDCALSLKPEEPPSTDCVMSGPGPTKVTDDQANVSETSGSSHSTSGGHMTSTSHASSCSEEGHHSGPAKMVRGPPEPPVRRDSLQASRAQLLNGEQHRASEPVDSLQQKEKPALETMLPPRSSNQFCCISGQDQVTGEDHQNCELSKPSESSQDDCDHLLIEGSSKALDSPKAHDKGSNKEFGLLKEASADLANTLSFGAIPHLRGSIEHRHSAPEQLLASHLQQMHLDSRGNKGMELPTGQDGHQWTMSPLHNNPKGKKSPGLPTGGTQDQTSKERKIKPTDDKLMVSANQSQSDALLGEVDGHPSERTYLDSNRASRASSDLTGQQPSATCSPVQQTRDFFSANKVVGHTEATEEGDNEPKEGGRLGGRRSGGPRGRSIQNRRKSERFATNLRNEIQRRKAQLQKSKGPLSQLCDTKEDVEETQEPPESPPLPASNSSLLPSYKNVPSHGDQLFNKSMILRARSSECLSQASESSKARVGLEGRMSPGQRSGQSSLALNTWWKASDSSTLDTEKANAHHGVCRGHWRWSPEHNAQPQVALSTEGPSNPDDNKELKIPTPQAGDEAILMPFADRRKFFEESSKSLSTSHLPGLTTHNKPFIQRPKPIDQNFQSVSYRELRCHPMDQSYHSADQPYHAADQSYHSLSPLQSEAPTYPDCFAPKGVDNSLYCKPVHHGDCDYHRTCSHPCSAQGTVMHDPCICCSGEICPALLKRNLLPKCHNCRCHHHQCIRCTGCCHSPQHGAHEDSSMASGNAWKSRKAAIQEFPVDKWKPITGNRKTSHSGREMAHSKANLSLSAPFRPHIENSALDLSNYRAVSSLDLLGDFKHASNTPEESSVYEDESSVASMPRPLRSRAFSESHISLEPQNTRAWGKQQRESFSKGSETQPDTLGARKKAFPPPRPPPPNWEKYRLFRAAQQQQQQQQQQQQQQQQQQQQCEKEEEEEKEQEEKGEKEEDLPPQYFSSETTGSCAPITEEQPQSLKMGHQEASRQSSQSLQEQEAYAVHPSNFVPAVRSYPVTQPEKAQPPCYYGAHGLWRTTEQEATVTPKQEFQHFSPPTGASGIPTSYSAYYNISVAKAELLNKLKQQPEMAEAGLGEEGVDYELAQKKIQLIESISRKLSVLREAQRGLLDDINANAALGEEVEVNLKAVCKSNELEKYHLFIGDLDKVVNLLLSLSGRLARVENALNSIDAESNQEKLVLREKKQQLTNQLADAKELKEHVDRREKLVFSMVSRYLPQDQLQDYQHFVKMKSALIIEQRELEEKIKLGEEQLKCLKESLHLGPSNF
The experiment can be described thus: co-IP; adult rat brain extracts (50 mM TRIS-HCl, 200 mM NaCl, 1 mM EDTA, 1% NP40, 1% Triton X-100, pH 7.4); antibody (anti-Shrm4 or anti-GABAAR δ) at 4 °C overnight, protein A-agarose, western blot. Background: Immunoblotting shows a protein as a band on a membrane.

For the substance “KIF5C, endogenous in rat brain (from UniProt P56536 1-955)”, the binding result is listed as “no binding”.
